Test results taken from a collection of fitness landscapes (doi:10.1126/science.1257360).
The list shows a part of the results.

B1: PhoQ; a variant is named by its letters at X, in order, P23837 (parent)
chain: MKKLLRLFFPLSLRVRFLLATAAVVLVLSLAYGMVALIGYSVSFDKTTFRLLRGESNLFYTLAKWENNKLHVELPENIDKQSPTMTLIYDENGQLLWAQRDVPWLMKMIQPDWLKSNGFHEIEADVNDTSLLLSGDHSIQQQLQEVREDDDDAEMTHSVAVNVYPATSRMPKLTIVVVDTIPVELKSSYMVWSWFIYVLSANLLLVIPLLWVAAWWSLRPIEALAKEVRELEEHNRELLNPATTRELTSLVRNLNRLLKSERERYDKYRTTLTDLTHSLKTPLXXLQXXLRSLRSEKMSVSDAEPVMLEQISRISQQIGYYLHRASMRGGTLLSRELHPVAPLLDNLTSALNKVYQRKGVNISLDISPEISFVGEQNDFVEVMGNVLDNACKYCLEFVEISARQTDEHLYIVVEDDGPGIPLSKREVIFDRGQRVDTLRPGQGVGLAVAREITEQYEGKIVAGESMLGGARMEVIFGRQHSAPKDE

Variants of: B1
Assay: enrichment ratio after two sorts for PhoP signalling (ratio (wild type AVST 3.29)); higher = more functional
Conditions: with PhoP (E. coli)
In the case of SWMR, the enrichment ratio is reported as ≤ 0.25.
In the case of AYVF, the enrichment ratio is reported as ≤ 0.25.
Work on AKLQ yielded an enrichment ratio of 41.4.
For FGWF, the enrichment ratio was 0.428.
HRIA was tested, and the enrichment ratio was ≤ 0.25.
With WISC the enrichment ratio was ≤ 0.25.
With EGTF the enrichment ratio was ≤ 0.25.
For GISD, the enrichment ratio was ≤ 0.25.
NMFL was tested, and the enrichment ratio was ≤ 0.25.
With PISN the enrichment ratio was ≤ 0.25.
In the case of LPKT, the enrichment ratio is reported as ≤ 0.25.
With EFYI the enrichment ratio was ≤ 0.25.
In the case of LTPR, the enrichment ratio is reported as ≤ 0.25.
With AYLV the enrichment ratio was 3.08.
In the case of TYNT, the enrichment ratio is reported as ≤ 0.25.
With GIQV the enrichment ratio was ≤ 0.25.
For WPDF, the enrichment ratio was ≤ 0.25.
For SYNY, the enrichment ratio was ≤ 0.25.
YEVL was tested, and the enrichment ratio was ≤ 0.25.
For GEPT, the enrichment ratio was ≤ 0.25.
For IVVC, the enrichment ratio was ≤ 0.25.
With NAMG the enrichment ratio was ≤ 0.25.
In the case of WPQC, the enrichment ratio is reported as ≤ 0.25.
With RDYE the enrichment ratio was ≤ 0.25.
QRNG was tested, and the enrichment ratio was ≤ 0.25.
For FARM, the enrichment ratio was ≤ 0.25.
YHFG was tested, and the enrichment ratio was ≤ 0.25.
For HINW, the enrichment ratio was ≤ 0.25.
For TPSP, the enrichment ratio was ≤ 0.25.
In the case of IYNN, the enrichment ratio is reported as ≤ 0.25.
SIQW was tested, and the enrichment ratio was ≤ 0.25.
For THFA, the enrichment ratio was ≤ 0.25.
Variant MEST has an enrichment ratio of 5.63.
Variant SSTC has an enrichment ratio of 10.3.
KLHL was tested, and the enrichment ratio was ≤ 0.25.
EYVA was tested, and the enrichment ratio was ≤ 0.25.
In the case of HDVE, the enrichment ratio is reported as ≤ 0.25.
With VCTE the enrichment ratio was ≤ 0.25.
SYTL was tested, and the enrichment ratio was ≤ 0.25.
For MKGI, the enrichment ratio was ≤ 0.25.
With REWW the enrichment ratio was ≤ 0.25.
With LGHI the enrichment ratio was 4.08.
With TLRT the enrichment ratio was ≤ 0.25.
In the case of TAFV, the enrichment ratio is reported as ≤ 0.25.
For NYMM, the enrichment ratio was ≤ 0.25.
In the case of DFPP, the enrichment ratio is reported as ≤ 0.25.
For LQNT, the enrichment ratio was ≤ 0.25.
With WNGR the enrichment ratio was ≤ 0.25.
In the case of FNHV, the enrichment ratio is reported as ≤ 0.25.
WTRP was tested, and the enrichment ratio was ≤ 0.25.
DNRR was tested, and the enrichment ratio was ≤ 0.25.
AQDP was tested, and the enrichment ratio was ≤ 0.25.
In the case of ISKA, the enrichment ratio is reported as ≤ 0.25.
TDVL showed an enrichment ratio of 2.12.
In the case of PGIY, the enrichment ratio is reported as ≤ 0.25.
With ARWP the enrichment ratio was ≤ 0.25.
For RAIP, the enrichment ratio was ≤ 0.25.
With SPTM the enrichment ratio was ≤ 0.25.
For WYMQ, the enrichment ratio was ≤ 0.25.
GINK was tested, and the enrichment ratio was ≤ 0.25.
In the case of MMMY, the enrichment ratio is reported as ≤ 0.25.
With KCCS the enrichment ratio was ≤ 0.25.
In the case of VMLE, the enrichment ratio is reported as ≤ 0.25.
For SSQR, the enrichment ratio was ≤ 0.25.
With GSDE the enrichment ratio was ≤ 0.25.
With GITG the enrichment ratio was 2.48.
With PENW the enrichment ratio was ≤ 0.25.
WNFE was tested, and the enrichment ratio was ≤ 0.25.
In the case of DWHD, the enrichment ratio is reported as ≤ 0.25.
For KAKA, the enrichment ratio was ≤ 0.25.
In the case of HFST, the enrichment ratio is reported as ≤ 0.25.
GMNW was tested, and the enrichment ratio was ≤ 0.25.
For LKDH, the enrichment ratio was ≤ 0.25.
DFYS was tested, and the enrichment ratio was ≤ 0.25.
In the case of HILT, the enrichment ratio is reported as ≤ 0.25.
HHMW was tested, and the enrichment ratio was ≤ 0.25.
For WRHN, the enrichment ratio was ≤ 0.25.
With NTMG the enrichment ratio was ≤ 0.25.
In the case of PWLM, the enrichment ratio is reported as ≤ 0.25.
In the case of VTYA, the enrichment ratio is reported as ≤ 0.25.
For IERV, the enrichment ratio was ≤ 0.25.
For FLNV, the enrichment ratio was ≤ 0.25.
In the case of QVLV, the enrichment ratio is reported as ≤ 0.25.
Variant ASTA has an enrichment ratio of 9.73.
For NETQ, the enrichment ratio was ≤ 0.25.
With DIWP the enrichment ratio was ≤ 0.25.
In the case of ITAP, the enrichment ratio is reported as ≤ 0.25.
With LNAM the enrichment ratio was ≤ 0.25.
For QLIY, the enrichment ratio was ≤ 0.25.
PKAP was tested, and the enrichment ratio was ≤ 0.25.
For GDQI, the enrichment ratio was ≤ 0.25.
In the case of NFIT, the enrichment ratio is reported as ≤ 0.25.
In the case of IETN, the enrichment ratio is reported as ≤ 0.25.
In the case of SFWH, the enrichment ratio is reported as ≤ 0.25.
For TWYS, the enrichment ratio was ≤ 0.25.
In the case of TRPE, the enrichment ratio is reported as ≤ 0.25.
For GMMK, the enrichment ratio was ≤ 0.25.
In the case of LWCN, the enrichment ratio is reported as ≤ 0.25.
FTAL was tested, and the enrichment ratio was 0.293.
In the case of NMPG, the enrichment ratio is reported as ≤ 0.25.
For RDEL, the enrichment ratio was ≤ 0.25.
For RTTC, the enrichment ratio was ≤ 0.25.
Work on YIGF yielded an enrichment ratio of 0.333.
KGRM was tested, and the enrichment ratio was ≤ 0.25.
For WRYS, the enrichment ratio was ≤ 0.25.
With LPTW the enrichment ratio was ≤ 0.25.
For MKHG, the enrichment ratio was ≤ 0.25.
Work on GILQ yielded an enrichment ratio of 17.5.
With VWHL the enrichment ratio was ≤ 0.25.
In the case of TWGP, the enrichment ratio is reported as ≤ 0.25.
With WQEW the enrichment ratio was ≤ 0.25.
With YRDF the enrichment ratio was ≤ 0.25.
With YMVT the enrichment ratio was ≤ 0.25.
In the case of EEQY, the enrichment ratio is reported as ≤ 0.25.
SIAM was tested, and the enrichment ratio was 20.8.
DMSW was tested, and the enrichment ratio was ≤ 0.25.
With YRAY the enrichment ratio was ≤ 0.25.
DVRV was tested, and the enrichment ratio was ≤ 0.25.
With PARD the enrichment ratio was ≤ 0.25.
For DGCI, the enrichment ratio was ≤ 0.25.
For NHYM, the enrichment ratio was ≤ 0.25.
In the case of AYWF, the enrichment ratio is reported as ≤ 0.25.
For RPID, the enrichment ratio was ≤ 0.25.
With YKDK the enrichment ratio was ≤ 0.25.
KYEV was tested, and the enrichment ratio was ≤ 0.25.
KCVD was tested, and the enrichment ratio was ≤ 0.25.
For YVKR, the enrichment ratio was ≤ 0.25.
GVQP was tested, and the enrichment ratio was ≤ 0.25.
For LILQ, the enrichment ratio was ≤ 0.25.
In the case of YNSA, the enrichment ratio is reported as ≤ 0.25.
LWAY gave an enrichment ratio of 0.574.
HPIM was tested, and the enrichment ratio was ≤ 0.25.
In the case of LLCI, the enrichment ratio is reported as ≤ 0.25.
With NISQ the enrichment ratio was ≤ 0.25.
In the case of RPFA, the enrichment ratio is reported as ≤ 0.25.
NAHS was tested, and the enrichment ratio was ≤ 0.25.
In the case of YSIF, the enrichment ratio is reported as ≤ 0.25.
In the case of MCIW, the enrichment ratio is reported as ≤ 0.25.
With GFRF the enrichment ratio was ≤ 0.25.
In the case of PDNF, the enrichment ratio is reported as ≤ 0.25.
In the case of RIVI, the enrichment ratio is reported as ≤ 0.25.
In the case of PKTY, the enrichment ratio is reported as ≤ 0.25.
For HIKK, the enrichment ratio was ≤ 0.25.
TWCN was tested, and the enrichment ratio was ≤ 0.25.
With KFKN the enrichment ratio was ≤ 0.25.
NTIR was tested, and the enrichment ratio was ≤ 0.25.
In the case of IELL, the enrichment ratio is reported as ≤ 0.25.
For DRVI, the enrichment ratio was ≤ 0.25.
QGPH was tested, and the enrichment ratio was ≤ 0.25.
In the case of HLHE, the enrichment ratio is reported as ≤ 0.25.
With YILD the enrichment ratio was ≤ 0.25.
With VQGT the enrichment ratio was ≤ 0.25.
For SMVL, the enrichment ratio was 3.56.
